Assay results published in US4011327A (priority 1975, dated 1977).

Tests used:
Sporotrichum schenckii = experiment: Antifungal activity in vitro, mycelial growth on Sabouraud dextrose agar; parameters: key: T: trace of growth; settings: week 1, No. 1109, 25° C, duplicates a, b
Protocol: (§1) The minimum in vitro inhibitory concentration of 7β-methylthiodeoxynupharidin-6α-ol against these microorganisms in mcg/ml for a two week period as well as the disease and symptomatology usually associated with a mammalian infection by the microorganism is shown in Table 1.
(§2) Preparation of a solution of 7 -MTDOL suitable for running the antifungal tests was carried out in the following manner.
(§3) A 50 mg sample of 7-MTDOL was dissolved in a mixture of 30 mg of acetic acid and 1 ml of dimethylsulfoxide. The resulting solution was then employed to inhibit the growth of the microorganisms in vitro. The solvent blank which was used for comparison purposes was made up in a similar manner. Thus 60 mg of acetic and 2 ml of dimethylsulfoxide was diluted to 100 ml with water. These solutions of 7-MTDOL and reference solvent were sterilized by filtering through a Seitz filter.
(§4) The mycelial growth of Blastomyces dermatitidis and Histoplasma capsulatum was inhibited up to the end of 3 weeks by concentrations of 80 and 40 μg /ml respectively of 7-MTDOL in Sabouraud dextrose agar. The growth of Trichophyton rubrum and Sporotrichum schenckii was inhibited up to the end of 3 weeks by concentrations of 100 μg /ml of 7-MTDOL in Sabouraud dextrose agar. […]

Histoplasma capsulatum = test system: Histoplasma capsulatum; parameters: key: T: trace of growth; settings: 10 mcg/ml, week 1, No. 1106, 25° C, duplicates a, b
Protocol: as §1, §2, §3, §4

Measured: weekly increments of the diameter of colony

CSC1(C)CCC2C(C)CCC(c3ccoc3)N2C1O (single isomer, unassigned) [Example 7-MTDOL, 7β-methylthiodeoxynupharidin-6α-ol]
T: Sporotrichum schenckii; 20 mcg/ml | Sporotrichum schenckii; 40 mcg/ml | Histoplasma capsulatum
